This passage reports TGI and GI50 results from PubChem BioAssay (NCI).

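Where inhibition never reached the appropriate level, the endpoint shown equals the highest concentration tested. Otherwise, values were interpolated linearly from a five-concentration, 48-hour dose response in 96-well plates. Here, GI50 denotes the concentration required for 50% inhibition of growth. At the TGI there is no net growth.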 Peptide text beside a SMILES is read from it. * marks the point of attachment. Cbz = O=C(OCc1ccccc1)*

This test deals with NCI-H322M lung. Kind of test: NCI tumour cell line growth inhibition, 48 h.
`Cc1cc(C(F)(F)F)cc(-n2nc(NS(=O)(=O)c3cc(C)c(Cl)cc3S)nc2N)n1`: the TGI is above 100 µM.

`CCN(CC)CCSc1c2ccccc2nc2c(OC)ccc(OC)c12` showed a TGI of 48.5 µM.

The compound `c1ccc2c(c1)SCCC2NC1=NCCO1` (configuration not stated) had a TGI above 100 µM.

The compound `CC12CCC3c4ccc(O)cc4CCC3C1C/C(=N\O)C2O` (configuration not stated) showed a TGI above 100 µM.

With `CCCC(=O)N1CCN(c2ccc3c(c2)OC(C)O3)CC1` (configuration not stated), the TGI was above 100 µM.

On to `C=C1CC/C=C(\C)CCC[C@H](C)[C@@H](O)[C@@H]2OC(=O)C(=C)[C@@H]2C[C@H]1O`, for which the TGI amounted to 69.8 µM.

As for `Cn1cc(-c2csc(-c3c[nH]c4ccc(Br)cc34)n2)c2cnccc21`, the GI50 is 3.64 µM and the TGI was 25.3 µM.

Turning to `Cc1cc2c(cc1C(=O)c1ccc(N)cc1)OCO2`, the TGI was above 100 µM.

Compound `CC(C)C(C/C=C1\CC(CO)(COC(=O)C(C)(C)C)OC1=O)C(C)C` (configuration not stated) gave a TGI of 24.7 µM.

In the case of `CS(=O)(=O)Nc1cc(-c2ccc3ncnc(Nc4c(Cl)ccc5c4OCO5)c3c2)cnc1Cl`, the GI50 is 0.155 µM and the TGI came to 1.01 µM.

In the case of `C=C1C(=O)OC2CC(C)C(C(O)CC(C)O)=CCC12` (configuration not stated), the TGI was above 83.7 µM.

Compound `CN(C)c1ncnc2c1ncn2CCn1cnc2c(N(C)C)ncnc21` displayed a TGI above 100 µM.

Take `COC(=O)NC(C(F)(F)F)(C(F)(F)F)P1(=O)OCCCO1`: the TGI is above 100 µM.

Compound `CCCOC(=O)CNC(=O)OC(C)(C)C` registered a TGI above 100 µM.

Turning to `CC1=C(CO)C2=C(C)C3(CC3)[C@@](C)(O)C(=O)C2=C1`, the TGI was 0.567 µM.

`COC(=O)[C@@]1(C)/C(=N/NS(=O)(=O)c2ccc(C)cc2)CCC[C@@H]1C` yielded a TGI above 100 µM.

Compound `O=C(N(O)c1ccccc1Cl)C(O)(c1ccccc1)c1ccccc1` gave a TGI above 100 µM.

As for `COc1cc(C2CC(c3cccc(Nc4ccncc4)c3)=NN2c2ccc(Cl)cc2)cc(OC)c1OC` (configuration not stated), the GI50 was 1.45 µM and the TGI is 2.8 µM.

As for `C[N+](C)(C)CC1CCC/C1=N\OC(=O)c1ccccc1` (configuration not stated), the TGI is above 100 µM.

Turning to `O=[N+]([O-])c1ccc(CI)cc1`, the GI50 is 10.5 µM and the TGI came out at 23.7 µM.

Compound `FC(F)(F)c1ccc2c(c1)nc(-c1ccc(Cl)cc1)n2CC1CCCN2CCCCC12` (configuration not stated) returned a TGI of 25.8 µM.

`O=C(Nc1ccc([N+](=O)[O-])cc1[N+](=O)[O-])C(=O)C(C(=O)c1ccc2ccccc2c1)C1OC(=O)c2ccccc21` (configuration not stated) displayed a TGI of 50 µM.

As to `Cc1ccc(Nc2oc(-c3ccccc3)nc2[P+](c2ccccc2)(c2ccccc2)c2ccccc2)cc1`, the GI50 was 1.47 µM and the TGI amounted to 4.02 µM.

The compound `COc1cccc(C2CC23C(=O)NC(=O)NC3=O)c1` (configuration not stated) registered a TGI above 100 µM.

`C=COC(=O)N[C@H]1CCc2cc(OC)c(OC)c(OC)c2-c2ccc(SC)c(=O)cc21` displayed a TGI of 6.46 µM.

Turning to `CC1(C)OC2C(O)C(CO)OC2(C(F)F)O1` (configuration not stated), the TGI is above 100 µM.

For `CCOC(=O)NNC(=O)NCCCCNC(=O)NNC(=O)OCC`, the TGI was above 100 µM.

In turn, `COc1cccc2nc3c(C(=O)NCCN(C)C)cccc3cc12` registered a TGI of 14 µM.

On to `O=[N+]([O-])c1cccc2ccc(N/N=C/c3ccccc3O)nc12`, for which the GI50 was above 100 µM and the TGI is above 100 µM.

Compound `CC(NC(=O)C(NC(=O)OCc1ccccc1)C(C)C)C(=O)NCC(=O)O` (stereo not drawn) (Cbz-Val-Ala-Gly-OH; configuration not given here) came in with a TGI above 100 µM.

With `CC(C)OC(=O)[C@H](C)NP(=O)(OC[C@H]1O[C@@H](n2ccc(=O)[nH]c2=O)[C@](C)(F)[C@@H]1O)Oc1ccccc1` (some centres not stated), the GI50 was above 100 µM and the TGI was above 100 µM.

The compound `CC(=O)O[C@H]1CC[C@@]2(C)C(=CC[C@H]3[C@@H]4C/C(=C\c5ccc(N(C)C)cc5)[C@H](OC(C)=O)[C@@]4(C)CC[C@@H]32)C1` returned a TGI of 98.1 µM.

Regarding `Nc1ccn(C2OC(CO)C(O)C2O)c(=O)n1` (configuration not stated), the GI50 was above 28.2 µM and the TGI was above 500 µM.

`C=C(Nc1nc2ccc(C)cc2s1)C(=O)C(CC)C(=O)C(CC)CC1C(=O)NC(=O)NC1=O` (configuration not stated): the TGI is above 100 µM.

Consider `COc1ccc(C2=C3SC=c4ccccc4=C3ON=C2c2ccccc2)cc1`, for which the TGI was above 100 µM.

Take `CC1(Br)Cc2ccccc2C1=O` (configuration not stated): the TGI was 25.7 µM.

As for `COc1cc2c3c(c1OC)-c1cc4c(cc1CC3(C#N)N(C(=O)c1ccccc1)CC2)OCO4` (configuration not stated), the TGI is above 100 µM.

On to `COC1(OC)CCCc2c1no[n+]2[O-]`, for which the TGI was above 100 µM.

For `CN(CCN(C)C(=O)CCn1cc(F)c(=O)[nH]c1=O)C(=O)CCn1cc(F)c(=O)[nH]c1=O`, the TGI was above 100 µM.

On to `Cc1nc2cc(Nc3nc(Nc4ccc(F)cc4)nc(-c4cccs4)n3)ccc2n1Cc1ccccc1`, for which the GI50 was 21.4 µM and the TGI was determined as 85 µM.

In the case of `Cc1ccc(Cl)c2c(=O)c3ccc(N)cc3sc12`, the TGI was above 100 µM.

For `CC(Oc1ccc(OCC2CCCCC2)cc1)C(=O)OCC(=O)c1ccc(-c2ccccc2)cc1` (configuration not stated), the TGI is above 100 µM.

As for `COc1ccc(N=NC(=O)NC(CC(C)C)C(=O)NC(C)C(=O)O)cc1` (configuration not stated), the TGI was above 100 µM.

`C[C@H]1CN[C@@H]2[C@@H](C)[C@H]3[C@@H](C[C@H]4[C@@H]5CC[C@H]6C[C@@H](N)CC[C@]6(C)[C@H]5CC[C@]34C)O[C@@]2(O)C1` yielded a TGI of 7.84 µM.

On to `CCc1c(Cl)c(C)cc(O)c1Cl`, for which the TGI is above 100 µM.

Take `COC(=O)c1ccc2c(c1)/C(=C\c1cc(Br)c(O)c(Br)c1)C(=O)N2`: the GI50 was 9.4 µM and the TGI was above 25 µM.

Consider `CCOC(=O)c1c(-c2ccc(OC)cc2)c(C#N)c2c(C#N)c(N)nn2c1N`, for which the GI50 was 7.28 µM and the TGI was above 100 µM.

The compound `CC(C)=CC1CC(=[N+]=[N-])C(=O)C1(C)C` (configuration not stated) came in with a TGI above 100 µM.

`CN(C)CCCn1cnc2cc(Cl)c(Cl)cc21`: the TGI was above 100 µM.

Turning to `Cc1cccc2c1Sc1ccccc1C2NC(=O)CCN(C)C` (configuration not stated), the TGI was above 100 µM.

For the compound `CN(C)c1ccc(N=Nc2ccccn2)c(O)c1`, the GI50 was 0.402 µM and the TGI was above 100 µM.

In turn, `O=c1oc2c/c(=C\c3ccc([N+](=O)[O-])cc3)c(=O)c3cccc1c3-2` displayed a TGI above 100 µM.

In the case of `CCOC1c2cc(C(C)C)c(O)c(O)c2[C@@]23CCCC(C)(C)C2C1OC3=O` (some centres not stated), the TGI was above 100 µM.

Compound `CC(=O)NNc1nc(-c2ccc([N+](=O)[O-])cc2)c(C#N)c(=O)n1C` displayed a TGI of 55.7 µM.

Compound `CCOC(=O)Cc1ccc(Nc2nc3ccccc3nc2C(=O)OCC)cc1` showed a TGI above 100 µM.

The compound `C[Si](C)(C)/C(I)=C/CO` showed a TGI of 84.3 µM.

As for `[N-]=[N+]=CC(=O)OC1Cc2ccccc2C1`, the TGI was above 100 µM.

Consider `O=C1c2ccccc2C(=O)c2c1nc1ccccc1c2-c1cncc(-c2c3c(nc4ccccc24)C(=O)c2ccccc2C3=O)c1`, for which the TGI is 25 µM.

For `O=c1[nH]c2ccc(O)cc2o1`, the TGI was above 100 µM.

Compound `CC1OC(OC2C(OC(=O)[C@]34CCC(C)(C)C[C@H]3C3=CC[C@@H]5[C@@]6(C)CC[C@H](OC7OC(CO)C(O)C(O)C7OC7OC(CO)C(O)C(O)C7O)C(C)(C)[C@@H]6CC[C@@]5(C)[C@]3(C)CC4)OCC(O)C2O)C(O)C(OC2OCC(O)C(O)C2O)C1OC1OCC(O)C(OC2OCC(O)C(O)C2O)C1O` (some centres not stated) registered a TGI of 18.6 µM.

As to `Oc1ccc(Nc2c3ccccc3nc3occ(Cl)c23)cc1`, the GI50 is 5.69 µM and the TGI was found to be 76.7 µM.

In the case of `O=C1c2cccc3cccc(c23)C(=O)N1CCCCCN1CCN(CCCCCOc2ccc(-c3nc4ccc(N5CCOCC5)cc4[nH]3)cc2)CC1`, the GI50 is 31.3 µM and the TGI is above 65.1 µM.

`O=S(=O)(c1ccccc1)N1N=C2c3ccccc3CCC[C@H]2C1c1ccccc1` (some centres not stated) came in with a TGI above 100 µM.

As to `O=c1nc(N2CCNCC2)oc2cc(Cl)oc(=O)c12`, the TGI amounted to 40 µM.

Turning to `Nc1n[nH]c(=O)c2c1c(I)cn2C1OC(CO)C(O)C1O` (configuration not stated), the TGI is above 100 µM.

Regarding `COC(C)(C)OCCN1CCN(CCN2C3=C(C=C(C(C)=O)C3)Sc3ccccc32)CC1`, the TGI was 68.6 µM.

With `COc1ccc(-c2nc3ncccn3c2-c2ccc(SC)cc2)cc1`, the TGI was found to be 6.1 µM.

In the case of `Oc1ccc2ccccc2c1N=Nc1ccc(Br)cc1`, the TGI is above 100 µM.

The compound `CCOC(=O)c1nc2cc(F)c(N3CCOCC3)cc2[nH]c1=O` gave a TGI above 100 µM.

Consider `CCN(Cc1ccc(F)cc1)c1ccc(CO)c(Br)c1`, for which the GI50 was 10.1 µM and the TGI amounted to 37.2 µM.

As for `COc1ccc(/C=C(\C(C)=O)C(=O)Nc2ccccc2)cc1`, the TGI was above 100 µM.

With `O=C1CCC/C=C\C[C@H]2C=CC(=O)/C2=C/C[C@H](C/C=C\CC(F)(F)F)O1`, the GI50 is 0.877 µM and the TGI was 3.18 µM.

In the case of `CN(C)C(=S)Sc1ccc([N+](=O)[O-])cc1[N+](=O)[O-]`, the GI50 was 14.8 µM and the TGI is 28.2 µM.

In the case of `COc1ccc(/C(=C\C=C(C#N)C#N)Sc2nc3ccccc3s2)cc1`, the GI50 is 7.85 µM and the TGI was found to be 16.8 µM.

As to `O=C(Nc1ccc(Cl)c(C(F)(F)F)c1)c1ccc(NC2=C(Cl)C(=O)N(Cc3ccccc3)C2=O)cc1`, the GI50 is 17.7 µM and the TGI came out at 32.8 µM.

On to `N#Cc1c(-c2ccc(Cl)cc2)c(C#N)c(=O)n(NS(=O)(=O)c2ccccc2)c1O`, for which the TGI is above 100 µM.

`COC12OCCN(C)C1=CC(=O)C1=NNC(C)C12` (configuration not stated) gave a TGI above 100 µM.

On to `C[C@@]12CCC[C@@](C)(C(=O)O)C1CC[C@]13CC(=O)[C@](CO)(C1)[C@@H](O)CC32` (some centres not stated), for which the GI50 was above 100 µM and the TGI is above 100 µM.

For the compound `C[C@H](Nc1cc(Cl)nc2c1cnn2[C@@H]1O[C@H](COP(=O)(O)CP(=O)(O)O)[C@@H](O)[C@H]1O)c1ccccc1F`, the GI50 is above 100 µM and the TGI was above 100 µM.

`CCOC(=O)/C=C(\C(=O)OCC)n1ccc(=O)n(Cc2cn(CCCCOC(C)=O)nn2)c1=O` registered a TGI of 40 µM.

With `CC1=C(/C=C/C(C)=C/C=C/C(C)=C/C(=O)OC2CC(n3cc(F)c(=O)[nH]c3=O)OC2CO)C(C)(C)CCC1` (configuration not stated), the TGI worked out at 20.1 µM.

For the compound `COc1ccc(C2=C(c3ccc(OC)cc3)C(=O)N3CCCC3C2)cc1` (configuration not stated), the GI50 was 17.7 µM and the TGI was above 100 µM.

Turning to `O=C1C=C(NCCOCCO)C(=O)c2c(O)ccc(O)c21`, the TGI amounted to 82.8 µM.

Regarding `CCOC(=O)/C=C/c1ccc(C#Cc2ccccc2)cc1`, the GI50 was above 100 µM and the TGI is above 100 µM.
